Data from the supplement of paper PMC8728848.
This is one part of the list.

Columns and labels:
Assay in all cases: glycan array binding signal (z-score within array); higher = stronger binding
Details in all cases: glycan notation: IUPAC condensed, linker removed
Gal(b1-3)GalNAc(b1-3)Gal = molecular target: Gal(b1-3)GalNAc(b1-3)Gal
Outline: (§1)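 Glycan array data came from 3228 arrays in the Consortium for Functional Glycomics database, and only arrays with an available protein sequence were kept. Glycan names were put into IUPAC-condensed notation, and columns mapping to the same glycan were averaged. The binding signal is a within-array Z-score, averaged across arrays of one protein sequence run at different concentrations or buffers and across linkers. A negative Z-score can be read as non-binding.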

[1] = molecular target: Gal(b1-3)GalNAc(b1-3)Gal(a1-4)Gal(b1-4)Glc
Outline: as §1

[2] = molecular target: Gal(b1-3)GalNAc(b1-3)Gal(b1-4)Glc
Outline: as §1

[3] = molecular target: Gal(b1-3)GalNAc(b1-3)Gal(b1-4)GlcNAc
Outline: as §1

[4] = molecular target: Gal(b1-3)GalNAc(b1-4)Gal(b1-4)Glc
Outline: as §1

[5] = molecular target: Gal(b1-3)GalNAc(b1-4)[Neu5Ac(a2-3)]Gal(b1-4)Glc
Outline: as §1

Gal(b1-3)GlcNAc = molecular target: Gal(b1-3)GlcNAc
Outline: as §1

[6] = molecular target: Gal(b1-3)GlcNAc(a1-3)Gal(b1-4)GlcNAc
Outline: as §1

[7] = molecular target: Gal(b1-3)GlcNAc(a1-6)Gal(b1-4)GlcNAc
Outline: as §1

Gal(b1-3)GlcNAc(b1-2)Man = molecular target: Gal(b1-3)GlcNAc(b1-2)Man
Outline: as §1

[8] = molecular target: Gal(b1-3)GlcNAc(b1-2)Man(a1-3)[Gal(b1-3)GlcNAc(b1-2)Man(a1-6)]Man(b1-4)GlcNAc(b1-4)GlcNAc
Outline: as §1

[9] = molecular target: Gal(b1-3)GlcNAc(b1-2)Man(a1-3)[Gal(b1-3)GlcNAc(b1-2)Man(a1-6)]Man(b1-4)GlcNAc(b1-4)[Fuc(a1-6)]GlcNAc
Outline: as §1

[10] = molecular target: Gal(b1-3)GlcNAc(b1-2)Man(a1-3)[GlcNAc(b1-4)][Gal(b1-3)GlcNAc(b1-2)Man(a1-6)]Man(b1-4)GlcNAc(b1-4)GlcNAc
Outline: as §1

[11] = molecular target: Gal(b1-3)GlcNAc(b1-2)[Gal(b1-3)GlcNAc(b1-6)]Man(a1-6)[Gal(b1-3)GlcNAc(b1-2)Man(a1-3)]Man(b1-4)GlcNAc(b1-4)GlcNAc
Outline: as §1

[12] = molecular target: Gal(b1-3)GlcNAc(b1-3)Gal(b1-3)GlcNAc
Outline: as §1

[13] = molecular target: Gal(b1-3)GlcNAc(b1-3)Gal(b1-4)Glc
Outline: as §1

[14] = molecular target: Gal(b1-3)GlcNAc(b1-3)Gal(b1-4)GlcNAc
Outline: as §1

[15] = molecular target: Gal(b1-3)GlcNAc(b1-3)Gal(b1-4)GlcNAc(b1-2)Man(a1-3)[Gal(b1-3)GlcNAc(b1-3)Gal(b1-4)GlcNAc(b1-2)Man(a1-6)]Man(b1-4)GlcNAc(b1-4)GlcNAc
Outline: as §1

[16] = molecular target: Gal(b1-3)GlcNAc(b1-3)Gal(b1-4)GlcNAc(b1-2)[Gal(b1-3)GlcNAc(b1-3)Gal(b1-4)GlcNAc(b1-6)]Man(a1-6)[Gal(b1-3)GlcNAc(b1-3)Gal(b1-4)GlcNAc(b1-2)Man(a1-3)]Man(b1-4)GlcNAc(b1-4)[Fuc(a1-6)]GlcNAc
Outline: as §1

[17] = molecular target: Gal(b1-3)GlcNAc(b1-3)Gal(b1-4)GlcNAc(b1-3)Gal(b1-4)GlcNAc(b1-2)[Gal(b1-3)GlcNAc(b1-3)Gal(b1-4)GlcNAc(b1-3)Gal(b1-4)GlcNAc(b1-6)]Man(a1-6)[Gal(b1-3)GlcNAc(b1-3)Gal(b1-4)GlcNAc(b1-3)Gal(b1-4)GlcNAc(b1-2)Man(a1-3)]Man(b1-4)GlcNAc(b1-4)[Fuc(a1-6)]GlcNAc
Outline: as §1

[18] = molecular target: Gal(b1-3)GlcNAc(b1-3)Gal(b1-4)GlcNAc(b1-6)[Gal(b1-3)GlcNAc(b1-3)]Gal(b1-4)Glc
Outline: as §1

[19] = molecular target: Gal(b1-3)GlcNAc(b1-3)Gal(b1-4)[Fuc(a1-3)]GlcNAc
Outline: as §1

[20] = molecular target: Gal(b1-3)GlcNAc(b1-3)Gal(b1-4)[Fuc(a1-3)]GlcNAc(b1-6)[Gal(b1-3)GlcNAc(b1-3)]Gal(b1-4)Glc
Outline: as §1

[21] = molecular target: Gal(b1-3)GlcNAc(b1-3)GalNAc
Outline: as §1

[22] = molecular target: Gal(b1-3)GlcNAc(b1-6)Gal(b1-4)GlcNAc
Outline: as §1

[23] = molecular target: Gal(b1-3)GlcNAc(b1-6)GalNAc
Outline: as §1

[24] = molecular target: Gal(b1-3)GlcNAc(b1-6)[Gal(b1-3)]GalNAc
Outline: as §1

Gal(b1-3)GlcNAc6S = molecular target: Gal(b1-3)GlcNAc6S
Outline: as §1

[25] = molecular target: Gal(b1-3)[Fuc(a1-4)]GlcNAc
Outline: as §1

[26] = molecular target: Gal(b1-3)[Fuc(a1-4)]GlcNAc(b1-2)Man
Outline: as §1

[27] = molecular target: Gal(b1-3)[Fuc(a1-4)]GlcNAc(b1-2)Man(a1-3)[Gal(b1-3)[Fuc(a1-4)]GlcNAc(b1-2)Man(a1-6)]Man(b1-4)GlcNAc(b1-4)[Fuc(a1-6)]GlcNAc
Outline: as §1

[28] = molecular target: Gal(b1-3)[Fuc(a1-4)]GlcNAc(b1-3)Gal(b1-3)[Fuc(a1-4)]GlcNAc
Outline: as §1

[29] = molecular target: Gal(b1-3)[Fuc(a1-4)]GlcNAc(b1-3)Gal(b1-4)GlcNAc
Outline: as §1

[30] = molecular target: Gal(b1-3)[Fuc(a1-4)]GlcNAc(b1-3)Gal(b1-4)[Fuc(a1-3)]GlcNAc
Outline: as §1

[31] = molecular target: Gal(b1-3)[Fuc(a1-4)]GlcNAc(b1-6)GalNAc
Outline: as §1

[32] = molecular target: Gal(b1-3)[GlcNAc(b1-6)]GalNAc
Outline: as §1

[33] = molecular target: Gal(b1-3)[GlcNAc(b1-6)]GlcNAc
Outline: as §1

[34] = molecular target: Gal(b1-3)[Neu5Ac(a2-6)]GalNAc
Outline: as §1

B1: Epa15 (Candida glabrata) (protein)
chain: MGSSHHHHHHSSGLVPRGSHMASDPTTFPLGCSPEFTKTKKGLSMELYRYDYLPPGSYPCWDSAYLNPSYPRTGYKAKKLIATVDGVSGDINFKFNPKFGCKAIPDYLPSNFNYHEPITITNFTMILYGYFMPKTTAFHTFYVTADDLLFMNFGAGNAFDCCRREETADKFGNYAAYSVWGKKSLKNELTVYLHTGVYYPIRLFYNNRDYIAQLDIRFKTEHSNAIITNFTDYFYSVDDSSLGCPGLI
glycan array binding signal (z-score) (Gal(b1-3)GalNAc(b1-3)Gal): 1.73 | glycan array binding signal (z-score) [1]: 1.56 | glycan array binding signal (z-score) [2]: -0.277 | glycan array binding signal (z-score) [3]: -0.27 | glycan array binding signal (z-score) [4]: 2.64 | glycan array binding signal (z-score) [5]: 1.75 | glycan array binding signal (z-score) (Gal(b1-3)GlcNAc): -0.253 | glycan array binding signal (z-score) [6]: 0.197 | glycan array binding signal (z-score) [7]: -0.116 | glycan array binding signal (z-score) (Gal(b1-3)GlcNAc(b1-2)Man): 0.38 | glycan array binding signal (z-score) [8]: 1.33 | glycan array binding signal (z-score) [9]: -0.206 | glycan array binding signal (z-score) [10]: -0.337 | glycan array binding signal (z-score) [11]: 1.39 | glycan array binding signal (z-score) [12]: -0.025 | glycan array binding signal (z-score) [13]: 0.01 | glycan array binding signal (z-score) [14]: -0.487 | glycan array binding signal (z-score) [15]: -0.36 | glycan array binding signal (z-score) [16]: 0.867 | glycan array binding signal (z-score) [17]: 0.538 | glycan array binding signal (z-score) [18]: 0.468 | glycan array binding signal (z-score) [19]: -0.167 | glycan array binding signal (z-score) [20]: 0.111 | glycan array binding signal (z-score) [21]: 1.46 | glycan array binding signal (z-score) [22]: 0.87 | glycan array binding signal (z-score) [23]: 0.16 | glycan array binding signal (z-score) [24]: 1.09 | glycan array binding signal (z-score) (Gal(b1-3)GlcNAc6S): 0.374 | glycan array binding signal (z-score) [25]: -0.397 | glycan array binding signal (z-score) [26]: 0.38 | glycan array binding signal (z-score) [27]: 0.253 | glycan array binding signal (z-score) [28]: 0.068 | glycan array binding signal (z-score) [29]: -0.264 | glycan array binding signal (z-score) [30]: -0.318 | glycan array binding signal (z-score) [31]: 0.857 | glycan array binding signal (z-score) [32]: -0.042 | glycan array binding signal (z-score) [33]: 0.08 | glycan array binding signal (z-score) [34]: 0.637
